Read counts are not given, so values of variants with three or more changes are uncertain.
B1: LINE1-mini (parent)
chain: GGCAGAGCUCAACACAGCGUGGCAAAGUGGCUGUGGCUAGACUGCC

Variants of: B1
Experiment: self-cleavage, relative activity (ratio to wild type); higher = more cleavage; in vitro, sequencing; the parent is a self-cleaving ribozyme
C10U U34C C37U gave a self-cleavage of 0.01.
C23U G35A G36U C37U showed a self-cleavage of 0.03.
G21C C23U G27A C31U U34C gave a self-cleavage of 0.06.
With A26U G29U C45U the self-cleavage was 2.07.
Work on C3G C13U U34C yielded a self-cleavage of 0.1.
With C10A A11G G29C the self-cleavage was 0.02.
Work on C15G G27U G36C G40A C45U yielded a self-cleavage of 0.01.
Variant A4U A14U G19A G22U A25U U32G has a self-cleavage of 0.03.
Variant G1C G2U G7C G22A G33C has a self-cleavage of 0.02.
G2U U9C U32G showed a self-cleavage of 0.01.
A4U A12G G17U A41C showed a self-cleavage of 0.03.
With A14C G36U C45G the self-cleavage was 0.03.
Variant C15A A16G U38A A41G C42U has a self-cleavage of 0.01.
Variant G2A C3A C8A G19C has a self-cleavage of 0.36.
For A14G G17U G30U U34A, the self-cleavage was 0.
C3U A26G G29U showed a self-cleavage of 0.72.
Variant C3A A12C G17U C18G U28G A39U has a self-cleavage of 0.
For A14G C15A U20C G40U, the self-cleavage was 0.
For A12G C13G G21U U34A, the self-cleavage was 0.05.
In the case of C8U A16G A26U U28C, the self-cleavage is reported as 0.05.
In the case of C3U A12C G40U, the self-cleavage is reported as 0.02.
With G22U U32G G40U C46A the self-cleavage was 0.04.
With C8U G33A G44U the self-cleavage was 0.36.
G5U C8U C10U C15G C31A G36U U38G A39U showed a self-cleavage of 0.02.
With U9C C23U A25U the self-cleavage was 0.01.
In the case of C8U A11G U32G G33C C46U, the self-cleavage is reported as 0.04.
With C18A G36C A41C the self-cleavage was 0.02.
With G1A U9G A16U G17C A25C the self-cleavage was 0.17.
Variant C10G U20A U43A has a self-cleavage of 0.
C15G U32C G40U gave a self-cleavage of 0.1.
Work on A6U G27U A39U G44U yielded a self-cleavage of 2.41.
In the case of G5U U20A A26G, the self-cleavage is reported as 0.02.
In the case of A6G C23U U38C, the self-cleavage is reported as 0.18.
Variant C31U G35U A41C has a self-cleavage of 0.
Variant A14C A26C A39U C45U has a self-cleavage of 0.
For G21A A25C G35A, the self-cleavage was 0.19.
With U32A G36A A39U the self-cleavage was 0.03.
Variant C3G C13U G17C G19U has a self-cleavage of 0.11.
Work on A24U G29A C46U yielded a self-cleavage of 0.62.
In the case of C15A G17C A25U G44U, the self-cleavage is reported as 0.03.
C13U G22C G40U gave a self-cleavage of 0.05.
U9A C13A C18U G19C U28C U34A U43G showed a self-cleavage of 0.01.
With C10A G19U G35A C45A the self-cleavage was 0.04.
Variant C3U C18A G21U A24U U28C U43G has a self-cleavage of 0.01.
Variant G19U U38A A39C has a self-cleavage of 0.05.
In the case of G36C C37U A41G G44A, the self-cleavage is reported as 0.04.
A4U C15A G17C C23U G40U showed a self-cleavage of 0.14.
For A6G C8G C13G A16G C42A, the self-cleavage was 0.03.
A11G C18U G40C showed a self-cleavage of 0.01.
In the case of G1U A12C G19U G21C, the self-cleavage is reported as 0.
With G5A U20C G21U G33A C46G the self-cleavage was 0.07.
In the case of A11G G22C G35A A41G, the self-cleavage is reported as 0.01.
G5A A25G G35C C37U showed a self-cleavage of 0.04.
In the case of C13A C18A G35C, the self-cleavage is reported as 0.06.
Variant C18U A26U G36U has a self-cleavage of 0.05.
Work on C3G G5U C8A yielded a self-cleavage of 1.5.
With A16U C31G C37A the self-cleavage was 0.02.
With C8U C18U G19C C42U the self-cleavage was 0.03.
G22A G29A U38G showed a self-cleavage of 0.01.
Variant C8G G27A C31U has a self-cleavage of 0.09.
In the case of G1U C23U C42A, the self-cleavage is reported as 0.
Work on G7C C10G C18U yielded a self-cleavage of 0.03.
G21C C23A G35C G44C showed a self-cleavage of 0.04.
In the case of G7U G17A C18G G19C U20G G21U C23G A24C G27A, the self-cleavage is reported as 0.06.
In the case of G5A G7U U9C C23U C42G, the self-cleavage is reported as 0.1.
G7A C15U G22C G30U A39G showed a self-cleavage of 0.1.
G5U A12C G17A showed a self-cleavage of 0.01.
With C13U A26C C46G the self-cleavage was 0.11.
C3U U38C C45A C46A gave a self-cleavage of 0.1.
With G1C C3U G35A the self-cleavage was 0.04.
G17C U43G C45A gave a self-cleavage of 0.03.
C8U A14U G19C U20A A24G C37U C45A gave a self-cleavage of 0.01.
Variant G5C C15A U32C G35A G36C C42A has a self-cleavage of 0.01.
For C3A G27A U43A, the self-cleavage was 0.62.
In the case of C13G A25G C45G, the self-cleavage is reported as 0.07.
Work on C18G G22C A39G yielded a self-cleavage of 0.11.
C10U A12G U43G showed a self-cleavage of 0.
C3G G35U G40A gave a self-cleavage of 0.04.
G2A G22C C23U G30U C31U C37A gave a self-cleavage of 0.18.
A12G G19C U34A G35C gave a self-cleavage of 0.01.
C3A C13G C18A A25G showed a self-cleavage of 0.13.
In the case of G7A A14C C23A, the self-cleavage is reported as 0.15.
G7A G19C G36A gave a self-cleavage of 0.09.
For G5U C18U G21U A25U, the self-cleavage was 0.06.
